Assay results from PubChem BioAssay AID588855 (National Center for Advancing Translational Sciences (NCATS), 2011).
The campaign covered roughly 410,000 compounds. About 5,000 (1.2%) were called active. This list was built around the results that the source calls inconclusive (neither active nor inactive); the mix of calls is not that of the screen. The call rests on the fitted dose curve; in most records, active means well fitted inhibition curve with a large enough effect; inconclusive means small, poorly fitted or top-dose-only effect; inactive means no such curve, though single readings can be large or run the other way. Potencies of inconclusive entries are doubtful fits and often do not repeat.
Potency means the concentration at half of the fitted maximal effect; tags describe the fitted curve by direction and shape.

Assay: qHTS for Inhibitors of TGF-b; further: nearly all actives have a fitted effect of over 65% in size
Details: HepG2 CAGA-GFP TGF-b/SMAD3 reporter, GFP fluorescence, 18 h, TGF-beta stimulated, 500 pg/mL final; series mostly up to 46.1 µM
In short: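 Inhibition of TGF-beta-driven CAGA-GFP reporter expression in HEPG2 cells is measured by cellular GFP fluorescence after 18 h stimulation with 500 pg/mL recombinant TGF-beta in 1% FBS medium at 37 degrees C.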
With `CC1CCCCC1n1c(=S)[nH]c2ccccc2c1=O` (centres undefined) the Potency was inconclusive: 22.4 µM [inhibitor, single point].
For `CC(C)Oc1ccc2c(c1)OC(c1ccccc1)(C(F)(F)F)NC2=O` (centres undefined), the Potency was “inactive”.
In the case of `CN(C)CCNC(=O)c1cccc(-c2cnc3c(NC=O)cc(-c4ccc(F)cc4)cn23)c1`, the Potency is reported as inconclusive: 25.1 µM [inhibitor, single point].
With `Cn1c(C=O)c(-c2ccc3c(c2)OCCO3)c2ccccc21` the Potency was inconclusive: 35.5 µM [inhibitor, single point].
For `CCOC(=O)C1CCCN(C(=O)CCc2ccccc2)C1` (centres undefined), the Potency was inconclusive: 35.5 µM [inhibitor, single point].
With `Nc1nc(Cl)nc2c1ncn2[C@H]1C[C@H](O)[C@@H](CO)O1` the Potency was inconclusive: 35.5 µM [inhibitor, single point].
For `COc1ccc(SCC(Cc2ccccc2)N2CCN(CC(C)C)CCC2=O)cc1` (centres undefined), the Potency was inconclusive: 28.2 µM [inhibitor, single point].
With `NS(=O)(=O)CCCc1ccccc1` the Potency was inconclusive: 3.16 µM [inhibitor, single point].
For `CNC(=S)N/N=C(\C)c1ccc(N2CCOCC2)cc1`, the Potency was inconclusive: 11.2 µM [inhibitor, partial curve, poor fit].
With `Cc1nn(-c2ccc(C(=O)O)cc2)c(N)c1-c1ccccc1` the Potency was “inactive”.
In the case of `NC(=O)c1cnn(-c2ccc3ccccc3c2)c1N`, the Potency is reported as inconclusive: 15.8 µM [inhibitor, partial curve, poor fit].
For `CC(C)CN(C(=O)C1CSC2(C)CCC(=O)N12)c1c(N)n(Cc2ccccc2)c(=O)[nH]c1=O` (centres undefined), the Potency was “inactive”.
With `O=C(Nc1nc2c(s1)CCCC2)Oc1ccccc1` the Potency was “inactive”.
In the case of `Cc1onc(-c2c(F)cccc2Cl)c1C(=O)Nc1cc2cc([N+](=O)[O-])ccc2oc1=O`, the Potency is reported as “inactive”.
With `CCOc1ccc(N)c(SSc2cc(OCC)ccc2N)c1` the Potency was active: 6.31 µM.
With `Nc1cc(=O)[nH]c(SCC(=O)Nc2cccc(S(=O)(=O)N3CCCCC3)c2)n1` the Potency was “inactive”.
For `O=C(NC(NC(=S)Nc1ccccc1C(=O)O)C(Cl)(Cl)Cl)c1cccc([N+](=O)[O-])c1` (centres undefined), the Potency was “inactive”.
With `CCOc1ccc(-n2c(=O)c3c4c(sc3n(Cc3cc(=O)n5cc(Cl)ccc5n3)c2=O)CCC4)cc1` the Potency was inconclusive: 35.5 µM [inhibitor, single point].
For `O=C1NC(c2cccs2)Nc2ccccc21` (centres undefined), the Potency was inconclusive: 35.5 µM [inhibitor, partial curve, poor fit].
For `Cc1cc(C)cc(N(CC(=O)NCc2ccccc2)C(=O)CCC(=O)Nc2ccccn2)c1`, the Potency was “inactive”.
With `O=C(CN1CCN(c2ccc(Cl)cc2)CC1)Nc1ccc(Cl)c(C(F)(F)F)c1` the Potency was active: 10 µM.
With `CCN(CC)CCN1C(=O)Cn2c(C)c(C)c3cccc1c32` the Potency was inconclusive: 11.2 µM [inhibitor, partial curve, poor fit].
For `CC(=O)N(C)c1ccc(NC(=S)Nc2ccccc2)cc1`, the Potency was “inactive”.
For `O=C(O)c1cccc(NC2=C(N3CCOCC3)C(=O)c3ccccc3C2=O)c1`, the Potency was inconclusive: 3.55 µM [inhibitor, single point].
With `Cc1ccc(CNC(=O)CCn2ccc3cc(S(=O)(=O)N4CCCC4)ccc32)cc1` the Potency was “inactive”.
With `Cc1ccc(NC2c3ncccc3C(=O)N2Cc2cccs2)cc1` (centres undefined) the Potency was inconclusive: 5.62 µM [inhibitor, single point].
With `CCOC(=O)c1ccc(N2C(=O)CC(NC3CCN(C(=O)c4ccc(F)cc4)CC3)C2=O)cc1` (centres undefined) the Potency was inconclusive: 6.31 µM [inhibitor, single point].
With `COc1ccccc1NC(=O)CSc1nnc(Cc2cccs2)n1C` the Potency was inconclusive: 31.6 µM [inhibitor, partial curve, poor fit].
In the case of `Cc1ccccc1-n1c(Cn2c(=O)sc3ccccc32)nnc1SC(C)C`, the Potency is reported as inconclusive: 35.5 µM [inhibitor, single point].
In the case of `C[n+]1c(-c2ccccc2)sc([S-])c1-c1ccccc1`, the Potency is reported as inconclusive: 25.1 µM [inhibitor, single point].
With `CC1CCN(S(=O)(=O)c2cc(C(=O)NCCc3ccccc3)n(C)c2)CC1` the Potency was inconclusive: 11.2 µM [inhibitor, partial curve, poor fit].
In the case of `CCCNC(=O)C1(C)CCN(C(=O)c2ccc3ccccc3c2)C1` (centres undefined), the Potency is reported as “inactive”.
In the case of `CCCc1cc(=O)oc2cc(C)cc(OCC(=O)N[C@@H](CSCc3ccccc3)C(=O)O)c12`, the Potency is reported as “inactive”.
For `CCn1c(SCC(=O)N2CCCc3ccccc32)nc2ccccc2c1=O`, the Potency was “inactive”.
For `Cc1ccc(S(=O)(=O)N(C)c2ccc(C(=O)Nc3ccccn3)cc2)cc1`, the Potency was inconclusive: 28.2 µM [inhibitor, single point].
With `Cc1c(Cl)cccc1NC(=O)C1NC(=O)CC1c1ccccc1` (centres undefined) the Potency was inconclusive: 6.31 µM [inhibitor, single point].
In the case of `Cc1nn(CC(=O)N2CCc3ccccc32)c(C)c1S(=O)(=O)NC(C)(C)C`, the Potency is reported as inconclusive: 14.1 µM [inhibitor, single point].
With `Cc1ccc(C)c(N2CCN(C(=O)c3ccc(CS(=O)Cc4ccc(Cl)cc4)o3)CC2)c1` (centres undefined) the Potency was inconclusive: 22.4 µM [inhibitor, single point].
With `O=C(/C=C\c1ccc2c(c1)OCO2)NC1CC(=O)N(c2ccc(F)cc2)C1` (centres undefined) the Potency was inconclusive: 14.1 µM [inhibitor, partial curve].
In the case of `Cc1ccc(C)c(N2CCN(C(=O)CCC(=O)Nc3nnc(C(F)(F)F)s3)CC2)c1`, the Potency is reported as inconclusive: 35.5 µM [inhibitor, single point].
With `CCOC(=O)N1CCC(N2Cc3cccc(C(=O)NC(C)c4ccc5c(c4)OCCO5)c3C2=O)CC1` (centres undefined) the Potency was “inactive”.
With `CCOC(=O)N1CCN(C(=O)C(=O)NN)CC1` the Potency was “inactive”.
For `CC[C@@H](C(=O)n1nc(C)cc1C)[C@H](NS(=O)(=O)c1ccc(C)cc1)c1ccccc1`, the Potency was inconclusive: 17.8 µM [inhibitor, single point].
In the case of `CCOc1cccc(C2C=C(c3ccc4c(c3)OCO4)NC(c3ccc(Br)cc3)N2)c1O` (centres undefined), the Potency is reported as inconclusive: 15.8 µM [inhibitor, single point].
With `O=C(CSc1nnc2n(C3CCCC3)c(=O)c3ccccc3n12)N1CCCCCC1` the Potency was inconclusive: 22.4 µM [inhibitor, partial curve].
For `O=C(C1CC1)N1CCc2cc(S(=O)(=O)NCc3ccccc3)ccc21`, the Potency was “inactive”.
For `Cc1cc(C)cc(OCC(=O)NNC(=O)c2ccccn2)c1`, the Potency was inconclusive: 35.5 µM [inhibitor, partial curve, poor fit].
With `Cc1cccc(NC(=O)Cn2cc(C=O)c3ccccc32)c1` the Potency was inconclusive: 10 µM [inhibitor, partial curve].
In the case of `CC(C)OC(=O)c1c(NC(=O)CCC(=O)O)sc2c1CCCCC2`, the Potency is reported as inconclusive: 0.794 µM [inhibitor, partial curve, poor fit].
In the case of `COc1ccc(-c2noc(CSc3nnc(-c4ccccc4)n3-c3ccc(F)cc3)n2)c(OC)c1`, the Potency is reported as inconclusive: 14.1 µM [inhibitor, single point].
With `Cc1ccccc1C(=O)N1CCc2cc(-c3csc(NC(=O)CN4CCCC4)n3)ccc21` the Potency was inconclusive: 35.5 µM [inhibitor, single point].
For `C/C(=N\NC(=O)c1ccc(O)cc1)c1ccc2c(c1)Nc1ccccc1S2`, the Potency was inconclusive: 11.2 µM [inhibitor, partial curve].
For `O=C(CCCOc1ccc(Cl)cc1Cl)N1CCc2ccccc2C1`, the Potency was inconclusive: 35.5 µM [inhibitor, partial curve, poor fit].
In the case of `Cc1ccc2nc(-c3ccccc3C)oc(=O)c2c1`, the Potency is reported as “inactive”.
For `COC(=O)c1ccc(NC(=O)c2cc(-c3ccncc3)nc3ccccc23)cc1`, the Potency was “inactive”.
With `O=C(CNC(=O)c1cccs1)OCc1c(F)cccc1Cl` the Potency was “inactive”.
In the case of `O=C(Nc1ccccc1Cl)c1ccccc1Cc1ccccc1`, the Potency is reported as inconclusive: 3.16 µM [inhibitor, full curve, poor fit].
With `CC(=O)N[C@H]1[C@H](OC2CCCCC2)O[C@H](COC(C)=O)[C@@H](OC(C)=O)[C@@H]1OC(C)=O` the Potency was “inactive”.
With `COc1ccc(C[C@H]2CN3C(=NC[C@@H]3C(C)C)N2CCNC(=O)c2ccc(C)c(Br)c2)cc1` the Potency was inconclusive: 35.5 µM [inhibitor, single point].
In the case of `O=C(OC(c1ccccc1)c1nccc2ccccc12)c1cc([N+](=O)[O-])cc([N+](=O)[O-])c1` (centres undefined), the Potency is reported as inconclusive: 7.94 µM [inhibitor, partial curve, poor fit].
For `CCOc1ccc(NC(=S)NCCN2CCN(Cc3ccccc3)CC2)cc1`, the Potency was inconclusive: 35.5 µM [inhibitor, single point].
With `COc1ccccc1C(=O)N/C(=C\c1ccc(Br)cc1)C(=O)N1CCCC1` the Potency was inconclusive: 35.5 µM [inhibitor, single point].
With `O=C(COC(=O)CC(c1ccccc1)c1ccccc1)NCc1ccc(Cl)cc1` the Potency was active: 11.2 µM.
For `Nn1cnnc1N/N=C/c1cccc(Cl)c1Cl`, the Potency was inconclusive: 22.4 µM [inhibitor, single point].
In the case of `Cc1cc2cc(C)c3nnc(SCC(=O)Nc4ccc(S(=O)(=O)N5CCCCC5)cc4)n3c2cc1C`, the Potency is reported as “inactive”.
In the case of `Cc1cccc(-c2nc(CCNC(=O)c3ccccc3Br)cs2)c1`, the Potency is reported as inconclusive: 2.82 µM [inhibitor, partial curve].
With `CCOc1ccc(-c2nc3c(C#N)c[nH]n3c2NC2CCCCC2)cc1` the Potency was inconclusive: 8.91 µM [inhibitor, partial curve].
With `CC(NC(=S)Nc1cccc(F)c1)C(c1cccs1)N1CCOCC1` (centres undefined) the Potency was “inactive”.
For `FC(F)(F)c1cccc(-c2cc3nc(NCCOc4ccccc4)ccn3n2)c1`, the Potency was inconclusive: 15.8 µM [inhibitor, single point].
